Experimental data: article PMC12136788
Some of the results follow.

T1: UNK ZnF1-3 (human, UniProt Q9C0B0 31-174)
T1 sequence: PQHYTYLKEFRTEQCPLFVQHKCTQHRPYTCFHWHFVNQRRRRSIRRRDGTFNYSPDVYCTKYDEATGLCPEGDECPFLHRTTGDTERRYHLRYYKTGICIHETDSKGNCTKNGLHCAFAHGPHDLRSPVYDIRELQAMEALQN

B1: chr2:28002375:28002376:+_ENSG00000243147_ENST00000296102|hu_hu|FALSE|FALSE (ssRNA)
RNA: GGGAGUUCUACAGUCCGACGAUCUUAUUACACGCUACAGGAUUUCUGAAUCAGUAUCCCCGCCCUCAGUCUUCUCUUUAUAAAUCAAAGUCAUUUUCAAUCCACCGUUUAAAGGGAGCGUAUUUUUUUCUUUUCCACGAAGAGCAACAGAGGAUUGAGCAUCA
B2: chrX:20248820:20248821:+_ENSMUSG00000001924_ENSMUST00000001989|mus_mus|mus_mus_mus_hu_True|78_88 (ssRNA)
RNA: GGGAGUUCUACAGUCCGACGAUCGGCGAAGUCCGUCACCACAAAGUCAGGCUCUACCAGUGAUGCUACCAAGGAUUUAAAGCUAAUCUUCUUAGGUACUUUGACCUGACUGACGAUGCCUCCACGGAUGUAGUCGGAGAAGUUCAACAGAGGAUUGAGCAUCA
B3: chr3:35977374:35977375:+_ENSMUSG00000027710_ENSMUST00000011492|mus_hu|FALSE|FALSE (ssRNA)
RNA: GGGAGUUCUACAGUCCGACGAUCCACAGGUAUCUUGGUGUUUUCAAAAUGGACUUCACAAGUGUUGGAGCCCCGAAUGCCUAAUUUAUCUUCGGGUUUCCCAUUAGUGACUCCACCAAAGUCUCUUUCUACUAUGAAUGCUGUCAACAGAGGAUUGAGCAUCA
B4: chr8:101932826:101932827:-_ENSG00000164924_ENST00000353245|hu_hu|FALSE|FALSE (ssRNA)
RNA: GGGAGUUCUACAGUCCGACGAUCAAAUAUAGAAAUUCAAAUAGAAGUAACAUAAACCUGUCAUAAAUCGUAAACAAAAAACUAUUUGUGGGACAGCAUGGAUGACAAAUGGUCUACUGUGUAAAUUUUAGAAUGAGGCAGACACAACAGAGGAUUGAGCAUCA
B5: 75021839_75021959_3403_3pUTR_ENSMUSG00000034593_ENSMUST00000123128|mouse|control|control (ssRNA)
RNA: GGGAGUUCUACAGUCCGACGAUCUUUCUCUGAUCGAGUUUGUUCCAGGUCUUUUCGGAGUUUUGCAAUUUCUUCCUGCAGACUAAGGACCCGCCCAGUGGCAACCUUAGCUUCCUCUUCACUUAGCUGAAGACGUUCUACAUCCAACAGAGGAUUGAGCAUCA
B6: chr8:125590379:125590380:+_ENSMUSG00000000738_ENSMUST00000108868|mus_hu|FALSE|FALSE (ssRNA)
RNA: GGGAGUUCUACAGUCCGACGAUCUCUGACUGGAUUCUGAACUAAAUGUUGUUUCAACAACAAUCCGUUGAUCCCUUCAAAGGUAGGGGUUAGCAGUCUCAAUUGUAAGCUCUGCAGAGCUCGGCCUCCAGCCUCGGCGAGGUCCAACAGAGGAUUGAGCAUCA
B7: chr1:180854502:180854503:+_ENSG00000143324_ENST00000367589|hu_hu|motif|central (ssRNA)
RNA: GGGAGUUCUACAGUCCGACGAUCAGUGUACUUUUCAUGUAUGACCAAGUAAAGAUCCCUAAAAUUUUAAAACAGGUUUUCGGUGGGAUGGCAUGAAAUCCAAUGUUCAUCCUUUAAAACUGCUGGGAGAAAUGGCUGCCAAGGCAACAGAGGAUUGAGCAUCA
B8: chr13:100201144:100201145:-_ENSMUSG00000052727_ENSMUST00000064762|mus_mus|motif|central (ssRNA)
RNA: GGGAGUUCUACAGUCCGACGAUCCUCUUCCGUUGGCGGGAUCUUAUGCGACAAACUAGAGUCCUGGAUAUCAGAGGGACGGUAGUCCACUUCAGUUGGCCCGUUUUCAGUGAUAUGAAGCACACUGGCACCCAGAGUAGGGUGCAACAGAGGAUUGAGCAUCA
B9: chr2:48026839:48026840:+_ENSG00000116062_ENST00000540021|hu_hu|hu_hu_hu_mus_False|48_108 (ssRNA)
RNA: GGGAGUUCUACAGUCCGACGAUCAUAGUGUGCCACUAGCGUCCUAAAUCUGGAACAGUGGCGGUCAUCCGAAAACUGGCCGAUGAAAAACUUUCCCAGUGAAGUGUCCACAAAGCAAACACCAUACACACGAGUGUGACCAGACAACAGAGGAUUGAGCAUCA
B10: chr12:39756943:39756944:-_ENSG00000139116_ENST00000544797|hu_mus|hu_hu_hu_mus_False|18_88 (ssRNA)
RNA: GGGAGUUCUACAGUCCGACGAUCGGUUUGGCUGUUACCCCCAAGGGAAUCCUGUAGGAGUCUUGUCAGCUUAGAGUCUCUGUAAGGGACAUGGGUGGCUCUCUUGCUCUUGUCCCCCAAGGCACUUAUUACAUUCCCAAGAGCCAACAGAGGAUUGAGCAUCA
B11: chr17:55917276:55917277:-_ENSG00000181610_ENST00000313608|hu_hu|FALSE|FALSE (ssRNA)
RNA: GGGAGUUCUACAGUCCGACGAUCGUUUUCUUCCAACGCAGUCUGUGGUCUGACACUCAAGUGUUCGGAUUUCCGGGAAACGUGACUACCUCCGUGUUGAGUCCUUGCUUCGCCUACUCGUCUUAAAAUGACACCUUCUGCCAACAACAGAGGAUUGAGCAUCA
B12: chr5:71493517:71493518:+_ENSG00000131711_ENST00000296755|hu_mus|FALSE|FALSE (ssRNA)
RNA: GGGAGUUCUACAGUCCGACGAUCUUCCUUUAUGGGUAUGAAGCCCGUGCUUUUCUCUUCCUGUUUGUCUUGGUAAAGACCAGUGGAAGUCAGGUCAGAAACUGGGCUUUCUCUGUCUGGGAAGCCCUGCUUUCCAUUCUUCCCCAACAGAGGAUUGAGCAUCA
B13: 118676944_118677064_107_3pUTR_ENSMUSG00000020114_ENSMUST00000020315|mouse|control|control (ssRNA)
RNA: GGGAGUUCUACAGUCCGACGAUCCGGGGGGGAGGUAGGGGAGGCCGAGAGUGAGUGACGGGGACGGCCUAACGACGGCGCUGCUCGCGGGGCGCCGAGCUCAUGGGCGGCGGGACGGACGGCUUGGGCCUCGCCGGGAAGCCACAACAGAGGAUUGAGCAUCA
B14: chr3:148802587:148802588:-_ENSG00000071794_ENST00000310053|hu_mus|hu_hu_hu_mus_False|8_58 (ssRNA)
RNA: GGGAGUUCUACAGUCCGACGAUCUCCAACAACUUGUCCUCUCAUAGUUCCAAAUAAAACCAAAUCUUGCUCUUCAUCACUAGUUAGGAAGUCAUCUGGAGGAAUAAUGUCUUGGAAUUCAAAAUGUGGAAAGAAAGUUGAGUACAACAGAGGAUUGAGCAUCA
B15: 138048383_138048959_989_CDS_ENSMUSG00000040268_ENSMUST00000120441|mouse|control|control (ssRNA)
RNA: GGGAGUUCUACAGUCCGACGAUCGAAAGUCCGAGAUGUCGUCACGAUUUCAAACAGGUUGUCCCUCAUCAUUAUGUCACUCUGUUUGCACUCCUGGACUUUGUGCACUUCUUUAAGUGGUAUCACCCGCAGAGGUUCCUUCUCCAACAGAGGAUUGAGCAUCA
B16: 110301011_110306659_465_3pUTR_ENSG00000137714_ENST00000260270|human|control|control (ssRNA)
RNA: GGGAGUUCUACAGUCCGACGAUCUUUUCAACCACAACAUCUAGCAGAGAAUCACCAACUUUUCCUUUGGUUGUUAAUGUUUCACCAUCACGGUUUAUAAAGUGGACUGUUAUUUUAUCUUCUGAGCUGCUCCGGGCCCGCGCCCAACAGAGGAUUGAGCAUCA
B17: chr2:39006174:39006175:+_ENSG00000152147_ENST00000409566|hu_mus|motif|central (ssRNA)
RNA: GGGAGUUCUACAGUCCGACGAUCUACUCCUUCUCACAGGCUAUCACUCUCACUUCUUUAUAAACGUAAUCUUCCCAUUCGGAGGGGCUUUUCUUCAUCCAUUCGCUCAUGGUUACCAGUUGCCCAGAUUCUUUCUAGAUGACUCAACAGAGGAUUGAGCAUCA
B18: 29580787_29581120_1290_CDS_ENSMUSG00000010721_ENSMUST00000055195|mouse|control|control (ssRNA)
RNA: GGGAGUUCUACAGUCCGACGAUCCAUAGUUGUGUCAUCCUUCUUGGGUGUAAAGUUUCCAAAAAAUCUGAGGCUAUAGAAACCAACAACAGAAGACACCAUGAGAUAGAAAAUCAGAAUGAUUUCAAGUGCAGCUCCCACAAACAACAGAGGAUUGAGCAUCA
B19: chr7:65705844:65705845:+_ENSG00000169902_ENST00000304842|hu_mus|hu_hu_hu_mus_False|18_78 (ssRNA)
RNA: GGGAGUUCUACAGUCCGACGAUCAAACGGAUCUUUGUUACAUAAAUAAGGUGCCGGCUCCCCAUGCUUAACAAUGACCUCCAGAAGGAAGGCUUGCAUGGCAGAAUCUAGCACUUCAUCAGUAACACCCGCCUCAUCCAAGCGCAACAGAGGAUUGAGCAUCA
B20: chr1:109605286:109605287:-_ENSG00000197780_ENST00000461096|hu_mus|hu_hu_hu_mus_True|1_108 (ssRNA)
RNA: GGGAGUUCUACAGUCCGACGAUCAAGAACAAUAACAACAUUCAGUAACCUCUUUAAAUGCAAUUAUCCUUAUUAUAAGCUAAGCAGAAUAAUAAUUUAAUACCGUAAGUGAACUACACACAAAGCCUGAACCGCGAAACUACACAACAGAGGAUUGAGCAUCA
B21: chr4:84185219:84185220:-_ENSG00000173085_ENST00000439031|hu_hu|FALSE|FALSE (ssRNA)
RNA: GGGAGUUCUACAGUCCGACGAUCUCUGUGACAAGGGGGAAUUUUGCUAGCAAAUAAGUAAAAUCCAGGUAAAUAUGCUCUAAAUCUUCAUCUUCAGGUUCUUAAUUCUUUAACAUAUUGUAUCAGAUUUUGUAUUCAAAUCUACAACAGAGGAUUGAGCAUCA
B22: chr2:122217683:122217684:-_ENSG00000074054_ENST00000409078|hu_hu|FALSE|FALSE (ssRNA)
RNA: GGGAGUUCUACAGUCCGACGAUCACGCAAAUGUUGAAAGAAGUUAUCAUACUCAGCAGCACCAGCCAAAAGUAAAGAUCUAAUCUUUUUUAGAGCAUUUACUCUCUGCUCCCAAUCAUGCUUGUCAUCAGAUAAUAUUUCCCUCAACAGAGGAUUGAGCAUCA

Each binder was assayed against T1, UNK ZnF1-3 (assay: nsRBNS (natural sequence RNA bind-n-seq); RBNS binding buffer (assumed for nsRBNS): 25 mM Tris pH 7.5, 150 mM KCl, 3 mM MgCl2, 0.01% Triton X-100, 500 ug/ml BSA, 20 U/ml SUPERase-In, 4 C; UNK is unkempt and MSI1 is Musashi-1; names of the RNAs are library labels; protein concentration not given here; high values mean tight binding).
B1 showed a binding signal of 1.09 enrichment R. For B2, the binding signal was 0.837 enrichment R. For B3, the binding signal was 0.638 enrichment R. For B4, the binding signal was 1.66 enrichment R. For B5, the binding signal was 0.551 enrichment R. In the case of B6, the binding signal is reported as 0.847 enrichment R. Work on B7 yielded a binding signal of 1.64 enrichment R. B8 was tested, and the binding signal was 0.988 enrichment R. B9 gave a binding signal of 1.06 enrichment R. Work on B10 yielded a binding signal of 0.729 enrichment R. B11 gave a binding signal of 0.623 enrichment R. Binder B12 has a binding signal of 0.463 enrichment R. With B13 the binding signal was 1.24 enrichment R. In the case of B14, the binding signal is reported as 1.27 enrichment R. Work on B15 yielded a binding signal of 0.613 enrichment R. Binder B16 has a binding signal of 0.761 enrichment R. With B17 the binding signal was 0.691 enrichment R. Work on B18 yielded a binding signal of 1.23 enrichment R. In the case of B19, the binding signal is reported as 0.255 enrichment R. B20 was tested, and the binding signal was 0.836 enrichment R. In the case of B21, the binding signal is reported as 0.734 enrichment R. For B22, the binding signal was 1.23 enrichment R.
